Test results: the RNAGym collection of RNA variant scans (doi:10.7554/elife.90254)
Read counts are not given, so values of variants with three or more changes are uncertain.

B1: LINE1-full (parent)
chain: UACGUAGGUGGUUUUCCCCUGAUAGUGCUAAGGGGGCCUGGAAGUUUGGACUGGGCAGAGCUCAACACAGCGUGGCAAAGUGGCUGUGGCUAGACUGCCUCUCUGGAUUCCUCGUCACUCAGCAGGGCAUCUCUGAGAGAAAUGCC

Variants of: B1
Experiment: self-cleavage, relative activity (ratio to wild type); higher = more cleavage; in vitro, sequencing; the parent is a self-cleaving ribozyme
UACGUAGGUGGUCUUCCCCUGAUAGUGCUAAGGGGGCCUGGAAGUUUGGACUGGGCAGAGCUCAACACAGCGUGGCAAAGUGGCUGUGGCUAGACUGCCUCUCUGGAUUCCCCGUCACUCAGCAGGGCAUAUCUGAGAGAAAUGCC [U13C U112C C131A] gave a self-cleavage of 1.39. In the case of UACGUAGGUGGUCUUCCCCUGAUAGUGCUAAGGGGGCCUGGAAGUUUGGACUGGGCAGAGCUCAACACAGCGUGGCAAAGUGGCUGUGGCUAGACUGCCUCUCUGGAUUCCUCGCCACUCAGCAGGGCAUCACUGAGAGAAAUGCC [U13C U115C U132A], the self-cleavage is reported as 1.77. For UACGUAGGUGGUCUUCCCCUGAUAGUGCUAAGGGGGCCUGGAAGUUUGGACUGGGCAGAGCUCAACACAGCGUGGCAAAGUGGCUGUGGCUAGACUGCCCCUCUGGAUUCCUCGUCACUCAGCAGGGCAUCUCUGAGAGAAACGCC [U13C U100C U143C], the self-cleavage was 1.51. In the case of UACGUAGGUGGUCUUCCCCUGAUAGUGCUAAGGGGGCCUGGAAGUUUGGACUGGGCAGAGCUCAACACAGCGUGGCAAAGUGGCUGUGGCUAGACUGCCUCUCUGGACUCCUCGUCACUCAGCAGGGCAUCUCUGAGUGAAAUGCC [U13C U108C A138U], the self-cleavage is reported as 1.37. UACGUAGGUGGUGUUCCCCUGAUAGUGCUAAGGGGGCCUGGGAGUUUGGACUGGGCAGAGCUCAACACAGCGUGGCAAAGUGGCUGUGGCUAGACUGCCUCUCUGGAUUCCUCGUCACUCAGCUGGGCAUCUCUGAGAGAAAUGCC [U13G A42G A124U] gave a self-cleavage of 0.67. In the case of UACGUAGGUGGUCUUCCCCUGAUAGUGCUAAGGGGGCCUGGAAGUUUGGACUGGGCAGAGCUCAACACAGCGUGGCAAAGUGGCUGUGGCUAGACUGCCUCUCUGGAUUCCUCGCCACUCAGCAGGGCAUCUCAGAGAGAAAUGCC [U13C U115C U134A], the self-cleavage is reported as 0. UACGUAGGUGGUGUUCCCCUGAUAGUGCUAAGGGGGCCUGAAAGUUUGGACUGGGUAGAGCUCUACACAGCGAGGCGAAGUGGCUGUGGCUGGACUGCCUCUCUGGAUUCCUCGUCACUCAGCAGGGCAUCUCUGAGAGAAAUGCC [U13G G41A C56U A64U U73A A77G A92G] showed a self-cleavage of 0.05. Variant UACGUAGGUGGUCUUCCCCUGAUAGUGCUAAGGGGGCCUGGAAGUUUGGACUGGGCAGAGCUCAACACAGCGUGGCAAAGUGGCUGUGGCUAGACUGCCUCUCUGGAUUCCUCGUCACUCAGCAGGGCAUCCCUGAGAGAAACACC [U13C U132C U143C G144A] has a self-cleavage of 1.48. UACGUAGGUGGUGUUCCCCUGAUAGUGCUAAGGGGGCCUGGAAGUUUGGACUGGGCAGAGCUCAACACAGCGUGGCAAAGUGGCUAUGGCUAGACUGCCCCUCUGGAUUCCUCGUCACUCAGCAGGGCAUCUCUGAGAGAAAUGCC [U13G G86A U100C] showed a self-cleavage of 0.19. In the case of UACGUAGGUGGUCUUCCCCUGAUAGUGCUAAGGGGGCCUGGAAGUUUGGACUGGGCAGAGCUCAACACAGCGUGGCAAAGUGGCUGUGGCUAGACUGCCUCUCAGGAUUCCUCGACACUCAGCAGGGCAUCUCUGAGAGAAAUGCC [U13C U104A U115A], the self-cleavage is reported as 1.16. UACGUAGGUGGUGUUCCCCUGAUAGGGCUAAGGGGGCCUGGAAGUUUGGACUGGGCAGAGCUCAACACAGCGUGGCAAAGUGGCUGUGGCUAGACUGCCUCUCUGGAUUCCUCGUCACUCAGCAGGGCAUCUCUGAGUGAAAUGCC [U13G U26G A138U] gave a self-cleavage of 0.26. UACGUAGGUGGUCUUCCCCUGAUAGUGCUAAGGGGGCCUGGAAGUUUGGACUGGGCAGAGCUCAACACAGCGUGGCAAAGUGGCUGUGGCUAGACUGCCUCUCUGGAUUCCUCGUCACUCAGCAGGGCACCUCUGAGAGAAGUGCC [U13C U130C A142G] showed a self-cleavage of 1.21. Work on UACGUAGGUGGUGUUCCCCUGACAGUGCUAAGGGGGCCUGGAAGUUUGGACUGGGCAGAGCUCAACACAGCGUGGCAAGGUGGCUGAGGCUAGACUGCCUCUCUGGAUUCCUCGUCACUCAGCAGGGCAUCCCUGAGAGAAAUGCC [U13G U23C A79G U87A U132C] yielded a self-cleavage of 0.16. UACGUAGGUGGUCUUCCCCUGAUAGUGCUAAGGGGGCCUGGAAGUUUGGACUGGGCAGAGCUCAACACAGCGUGGCAAAGUGGCUGUGGCUAGACUGCCUCUCUGGACUCCUCGUCACUCAGCAGGGCAUCCCUGAGAGAAAUGCC [U13C U108C U132C] gave a self-cleavage of 1.15. UACGUAGGUGGUGUUCCCCUGAUAGUGCUAAGGGGGCCUGGAAGUUUGGUCUGGGCAGAGCUCAACACAGCGUGGCAAAGUGGCUGUGGCUAGACUGCCACUCUGGAUUCCUCGUCACUCAGCAGGGCAUCUCUGGGAGAAUUGCC [U13G A50U U100A A136G A142U] gave a self-cleavage of 0.92. Variant UACGUAGGUGGUCUUCCCCUGAUAGUGCUAAGGGGGCCUGGAAGUUUGGACUGGGCAGAGCUCAACACAGCGUGGCAAAGUGGCUGUGGCUAGACUGCCACUCUGGAUUCCUCGUCACUCAGCAGGGCACCUCUGAGAGAAAUGCC [U13C U100A U130C] has a self-cleavage of 0.66. UACGUAGGUGGUCUUCCCCUGAUAGUGCUAAGGGGGCCUGGAAGUUUGGACUGGGCAGAGCUCAACACAGCGUGGCAAAGUGGCUGUGGCUAGACUGCCUCUCUGGAUACCUCGUCACACAGCAGGGCAUCUCUGAGAGAAAUGCC [U13C U109A U119A] gave a self-cleavage of 0.82. With UACGUAGGUGGUCUUCCCCUGAUAGUGCUAAGGGGGCCUGGAAGUUUGGACUGGGCAGAGCUCAACACAGCGUGGCAAAGUGGCUGUGGCUAGACUGCCUCUCUGGAUUCCUCGCCACCCAGCAGGGCAUCUCUGAGAGAAAUGCC [U13C U115C U119C] the self-cleavage was 2.76. UACGUAGGUGGUCUUCCCCUGAUAGUGCUAAGGGGGCCUGGAAGUUUGGACUGGGCAGAGCUCAACACAGCGUGGCAAAGUGGCUGUGGCUAGACUGCCUCUCUGGAUUCCUCGUCACUCAGCAGGGCAUCUCAGGGAGAAAUGCC [U13C U134A A136G] showed a self-cleavage of 1.58.
